# Assay results taken from PMC10150487, “m^6A readers ECT2/ECT3/ECT4 enhance mRNA stability through direct recruitment of the poly(A) binding proteins in Arabidopsis” (Genome Biology, 2023).
# No constants are given. Whether binding was seen depends on the method and setting. Binding seen in cells or lysates may run through a third protein. Some binding calls cover weakened binding; strength is not graded here. Tags and fused reporters may be left off the sequences shown.
# T1: ECT2-nYFP (Arabidopsis thaliana) (UniProt Q9LJE5)
# T1 sequence: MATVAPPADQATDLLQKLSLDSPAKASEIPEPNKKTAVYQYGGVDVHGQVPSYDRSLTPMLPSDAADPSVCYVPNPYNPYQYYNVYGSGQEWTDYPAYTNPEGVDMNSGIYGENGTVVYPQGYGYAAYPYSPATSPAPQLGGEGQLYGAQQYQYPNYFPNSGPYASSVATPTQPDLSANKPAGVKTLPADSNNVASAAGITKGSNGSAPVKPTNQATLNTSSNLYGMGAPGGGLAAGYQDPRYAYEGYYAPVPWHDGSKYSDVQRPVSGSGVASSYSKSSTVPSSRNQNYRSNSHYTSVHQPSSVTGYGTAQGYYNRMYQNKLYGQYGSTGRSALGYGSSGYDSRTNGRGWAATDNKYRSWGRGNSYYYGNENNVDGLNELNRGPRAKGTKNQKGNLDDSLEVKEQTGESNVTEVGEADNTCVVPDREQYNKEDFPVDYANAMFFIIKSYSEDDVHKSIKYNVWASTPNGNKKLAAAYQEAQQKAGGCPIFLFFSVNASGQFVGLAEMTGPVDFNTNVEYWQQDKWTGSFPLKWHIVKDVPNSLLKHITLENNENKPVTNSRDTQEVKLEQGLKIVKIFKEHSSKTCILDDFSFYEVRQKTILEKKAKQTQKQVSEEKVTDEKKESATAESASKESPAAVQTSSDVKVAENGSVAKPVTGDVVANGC
# T2: ECT2, BiFC fusion used with PAB2 and PAB4 (Arabidopsis thaliana) (UniProt Q9LJE5)
# T2 sequence: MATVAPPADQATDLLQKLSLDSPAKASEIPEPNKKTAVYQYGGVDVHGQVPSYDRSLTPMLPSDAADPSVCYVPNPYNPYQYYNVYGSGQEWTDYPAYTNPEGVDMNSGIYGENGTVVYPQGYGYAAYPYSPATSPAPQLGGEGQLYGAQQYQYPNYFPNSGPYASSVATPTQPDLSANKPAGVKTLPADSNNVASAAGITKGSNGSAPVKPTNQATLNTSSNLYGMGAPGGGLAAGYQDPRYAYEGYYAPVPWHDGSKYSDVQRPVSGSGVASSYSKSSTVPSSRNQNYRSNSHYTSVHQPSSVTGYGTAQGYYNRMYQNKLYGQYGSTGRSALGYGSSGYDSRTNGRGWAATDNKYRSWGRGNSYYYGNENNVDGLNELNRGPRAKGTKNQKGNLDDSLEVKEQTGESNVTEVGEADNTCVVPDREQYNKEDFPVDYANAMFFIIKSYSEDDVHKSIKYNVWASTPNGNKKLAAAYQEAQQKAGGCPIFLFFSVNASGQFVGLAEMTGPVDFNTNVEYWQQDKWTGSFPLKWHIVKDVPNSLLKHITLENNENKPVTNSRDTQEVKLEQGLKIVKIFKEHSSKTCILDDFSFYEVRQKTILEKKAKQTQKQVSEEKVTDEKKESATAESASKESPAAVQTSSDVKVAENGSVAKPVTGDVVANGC
# What was measured:
# [1] = target: T1, ECT2-nYFP (Arabidopsis thaliana); assay: split reporter; BiFC with split YFP; pairs co-infiltrated with Agrobacterium GV3101 into 4-week-old Nicotiana benthamiana leaves, P19 co-expressed; YFP signal read 48-60 h after infiltration by confocal microscopy
# [2] = target: T2, ECT2, BiFC fusion used with PAB2 and PAB4 (Arabidopsis thaliana); assay: as above
Binder,binding [1],binding [2]
"ECT3-cYFP (protein, UniProt F4K1Z0 1-495) MANPDHVSDVLHNLSIDPTTKALAPDSETKLQGAYGGNGNDFLLNDELVEATKIGKPSLLSKDGGVTKDKGSNLKKLGYQSAAYNAKGSYGKGAYAYGYYPPAYQYPRHGYTGSYASGKTNLQYQYLTQQGRSAGNGQSYGGYMDNIYSNYGMCGPYTNGYGYGSYGYDSWKYMPNWYAVNNTYKPRNGYHGYGKENIEGLNEMNRGPRAKGFNSQDGSKVMAVSLKEQRVTETEKLSEDVSLLDPKDYNKIDFPETYTEAKFYVIKSYSEDDIHKSIKYSVWSSTPNGNKKLDASYNEAKQKSDGCPVFLLFSVNTSGQFVGLAEMVGPVDFNKTVEYWQQDKWIGCFPVKWHFVKDIPNSSLRHITLENNENKPVTNSRDTQEVKLEQGIKVIKIFKDHASKTCILDDFEFYENRQKIIQERKSKHLQIKKQTLVANADKGVMSKINLVKPQESTTASEDAAALGVAAEVTKESKVVKETELPVEKNAVATAC",binds,
"PAB2, BiFC fusion (protein, UniProt P42731 1-629) MAQVQLQGQTPNGSTAAVTSAPATSGGATATQFGNTSLYVGDLDFNVTDSQLFDAFGQMGTVVTVRVCRDLVTRRSLGYGYVNFTNPQDAARAIQELNYIPLYGKPIRVMYSHRDPSVRRSGAGNIFIKNLDESIDHKALHDTFSSFGNIVSCKVAVDSSGQSKGYGFVQYANEESAQKAIEKLNGMLLNDKQVYVGPFLRRQERDSTANKTKFTNVYVKNLAESTTDDDLKNAFGEYGKITSAVVMKDGEGKSKGFGFVNFENADDAARAVESLNGHKFDDKEWYVGRAQKKSERETELRVRYEQNLKEAADKFQSSNLYVKNLDPSISDEKLKEIFSPFGTVTSSKVMRDPNGTSKGSGFVAFATPEEATEAMSQLSGKMIESKPLYVAIAQRKEDRRVRLQAQFSQVRPVAMQPSVGPRMPVYPPGGPGIGQQMFYGQAPPAMIPPQPGYGYQQQLVPGMRPGGGPVPSFFMPMVQPQQQRPGGGRRPGGIQHSQQQNPMMQQQMHPRGRMFRYPQGRGGSGDVPPYDMGNNMPLTIGALASNLSNATPEQQRTMLGEVLYPLVEQVEAESAAKVTGMLLEMDQTEVLHLLESPEALKAKVAEAMDVLRSVAAGGATEQLASLNLS",,binds
"PAB4, BiFC fusion (protein, UniProt O22173 1-662) MAQVQAPSSHSPPPPAVVNDGAATASATPGIGVGGGGDGVTHGALCSLYVGDLDFNVTDSQLYDYFTEVCQVVSVRVCRDAATNTSLGYGYVNYSNTDDAEKAMQKLNYSYLNGKMIRITYSSRDSSARRSGVGNLFVKNLDKSVDNKTLHEAFSGCGTIVSCKVATDHMGQSRGYGFVQFDTEDSAKNAIEKLNGKVLNDKQIFVGPFLRKEERESAADKMKFTNVYVKNLSEATTDDELKTTFGQYGSISSAVVMRDGDGKSRCFGFVNFENPEDAARAVEALNGKKFDDKEWYVGKAQKKSERELELSRRYEQGSSDGGNKFDGLNLYVKNLDDTVTDEKLRELFAEFGTITSCKVMRDPSGTSKGSGFVAFSAASEASRVLNEMNGKMVGGKPLYVALAQRKEERRAKLQAQFSQMRPAFIPGVGPRMPIFTGGAPGLGQQIFYGQGPPPIIPHQPGFGYQPQLVPGMRPAFFGGPMMQPGQQGPRPGGRRSGDGPMRHQHQQPMPYMQPQMMPRGRGYRYPSGGRNMPDGPMPGGMVPVAYDMNVMPYSQPMSAGQLATSLANATPAQQRTLLGESLYPLVDQIESEHAAKVTGMLLEMDQTEVLHLLESPEALNAKVSEALDVLRNVNQPSSQGSEGNKSGSPSDLLASLSINDHL",,binds
